These results are taken from PMC10726135.

The other results are listed elsewhere or left out. At the low end of the ranking the order means little. Measured with an extract: partners may take part in the binding.

The target in this test is T1, HNF4alpha2 (COS-7 nuclear extract) (UniProt P41235).
T1 sequence: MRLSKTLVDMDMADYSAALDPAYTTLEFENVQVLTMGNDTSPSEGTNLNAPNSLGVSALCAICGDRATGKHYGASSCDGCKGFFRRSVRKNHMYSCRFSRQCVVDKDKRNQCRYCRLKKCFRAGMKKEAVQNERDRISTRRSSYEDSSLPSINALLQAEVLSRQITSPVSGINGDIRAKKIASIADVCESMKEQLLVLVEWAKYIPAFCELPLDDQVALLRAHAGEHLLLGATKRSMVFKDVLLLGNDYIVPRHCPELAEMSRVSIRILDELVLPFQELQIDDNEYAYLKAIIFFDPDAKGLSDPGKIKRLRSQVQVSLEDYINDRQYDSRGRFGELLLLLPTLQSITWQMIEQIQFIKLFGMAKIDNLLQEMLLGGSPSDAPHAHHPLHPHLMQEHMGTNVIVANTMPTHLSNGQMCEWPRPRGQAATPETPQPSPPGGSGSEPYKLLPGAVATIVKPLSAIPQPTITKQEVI
Briefly: protein-binding microarray. The settings on record: COS-7 nuclear extract on double-stranded Agilent 4x180k PBM; binding buffer, salt, pH and temperature not given; high values mean tight binding; double strand, one strand shown; sequences stand for … in …GCCTAGGGAGATTAGAGTATCGGTCGA
Consider GTTTGATCACAAGACATGAAGATGCAGAAC, for which the binding signal (log2 normalized intensity) is -0.962.

Turning to AGCACACCTTTTTTTCATGCAAATTTCCGT, the binding signal (log2 normalized intensity) was 0.118.

TCTTTGCTCTCCTCCTAATCACTGCCCTTT: the binding signal (log2 normalized intensity) came to 3.94.

For the sequence TCCTAGAGAAAGGGGCTTAGGGAGGGTGAA, the binding signal (log2 normalized intensity) is -1.23.

As for CATTTCAAGGCTGGCTGAGTTCCCTTACAG, the binding signal (log2 normalized intensity) was -1.14.

Consider ATCTTTTTACTGAGACTTAACAGTCACTCA, for which the binding signal (log2 normalized intensity) was -1.08.

Regarding TGACTTCTTTCGCTGTAGAAAGTGGTTTCA, the binding signal (log2 normalized intensity) worked out at 0.584.

For AACCAAAGGAATTTAGCCTTTAACCTGCAG, the binding signal (log2 normalized intensity) came to 1.55.

Take CGCTGCGGGTCACGTGCCGCTGCGGGTCAC: the binding signal (log2 normalized intensity) amounted to 1.94.

In the case of GGTGTGGTTAATGATTATGCCTCTGTGACC, the binding signal (log2 normalized intensity) is 1.94.

With TCTTTCAAGATAACAAGGCAAACTTTATCA, the binding signal (log2 normalized intensity) was -0.854.

For AAGGGAGCAAAGTGCATTTGATAAGGGTAT, the binding signal (log2 normalized intensity) came to 2.83.

For AGCGGGCTTAACTAGGAGCCTGCACGCCTG, the binding signal (log2 normalized intensity) is -1.07.

For GGTAGGCAGCCTCTGAGATGGACTCCAGTG, the binding signal (log2 normalized intensity) came out at 2.01.

With TTGCCTAAGACATGCTCGCAGCTGCATAGA, the binding signal (log2 normalized intensity) is -1.05.

As to TGAAATTCTGGACTTTCAACAGAGGGCCTC, the binding signal (log2 normalized intensity) is 2.79.

Turning to CTCACCTCTGGCCAGAGAGATGTCAGCCCA, the binding signal (log2 normalized intensity) worked out at 0.201.

For CGGATGGCCGTGGGTGGAAGGAAAAGAGGA, the binding signal (log2 normalized intensity) was -1.21.

On to TGTACTGTAAACCTAGGTAGTGGACTCTAA, for which the binding signal (log2 normalized intensity) was determined as 3.3.

ATCAAAGGTAGATGAATCCACAAAGATAAG: the binding signal (log2 normalized intensity) is -0.84.

As to AATGACATTCAGCAACTGGGTTCAGTTACG, the binding signal (log2 normalized intensity) is 0.79.

Consider TCATTTACAGAATTTCTCAGATGCCAGCTA, for which the binding signal (log2 normalized intensity) was -1.16.

In the case of CTTTTGCCCCCAGGCTGCAAACCTGTACAG, the binding signal (log2 normalized intensity) turned out to be 3.51.

Turning to ATTACTGCACCCCCTTCCCACCTGCTGTCC, the binding signal (log2 normalized intensity) came to 4.84.

Consider GTTGATCTGGATGCCTCACCTGGCAAGGCA, for which the binding signal (log2 normalized intensity) was -1.07.

For the sequence AAACTGGGCAAAGGTCAGGATCTCAGCCGC, the binding signal (log2 normalized intensity) was determined as 4.52.

Turning to GAAGATAGCTTTAAAGACCAAAGATCACAG, the binding signal (log2 normalized intensity) was determined as 1.68.

GGGCGTGTGTTAGACTTTGGACCTGGCCTG: the binding signal (log2 normalized intensity) turned out to be 7.25.

As to GATCACCCAGGTCCAAGTCACTATCACCTC, the binding signal (log2 normalized intensity) was -0.903.

In the case of GGTTAAAAGGACAACCTTCGGCCGGGCACG, the binding signal (log2 normalized intensity) was -1.07.

With GGGATTATGGCCGGCCCCTGGAATGCTGAG, the binding signal (log2 normalized intensity) was -0.859.

On to TGGACTATGTTTACACAGCCTTGTAGCAAG, for which the binding signal (log2 normalized intensity) was -0.815.

In the case of AAACATCTAATGAACTGATTAGAACATTAA, the binding signal (log2 normalized intensity) is -1.12.

Take GGGCCCAGGGTTCTCTGTGACCTTTGGAAG: the binding signal (log2 normalized intensity) was 8.2.

Turning to CATAAAAGTTCTCATGCTAAAAGTTGAATT, the binding signal (log2 normalized intensity) worked out at 0.325.

Regarding TCAAAGAATTTAACACCAGATAAACAGAAG, the binding signal (log2 normalized intensity) is -1.13.

For ATCTGGAGGGGGCAGGACAGCAGGAGTGGG, the binding signal (log2 normalized intensity) is -1.26.

Regarding CCCAGTTCATAGGTCAATTCTTTGAAGTCT, the binding signal (log2 normalized intensity) amounted to 3.28.

In the case of AAGATCATTCCAGGAATGTTCAAGAAGTTC, the binding signal (log2 normalized intensity) is 0.138.

As for GCCTGGCAAGACTTCTTCAGGGAGACTTCC, the binding signal (log2 normalized intensity) was -1.18.

For GAGTGGGAGGCTGGGGCCTCCTGGCTGGGC, the binding signal (log2 normalized intensity) is -0.741.

Consider TAACTGTATAACCTGGAACTGAAAGAGACC, for which the binding signal (log2 normalized intensity) was -1.1.

On to ACAGGGTGATCAGAGATCTAGGTGAGGGAT, for which the binding signal (log2 normalized intensity) is -1.2.

As to GACCCTGGGCTTAGTTGCTCGCTCCTTAGG, the binding signal (log2 normalized intensity) was -1.16.

In the case of TCTGCTTCCTGCTACAGAGCTCAGATTTCA, the binding signal (log2 normalized intensity) is -1.15.

In the case of TTGGACTCTGCCCTTGGCCTACTTAGTCCA, the binding signal (log2 normalized intensity) came to 3.59.

As to GAGGCCCTCTGTTGCTTCAAAGGGCAAAAG, the binding signal (log2 normalized intensity) was found to be 1.52.

As for TTGCTTTTCACAGTCGATCTTTGACCGCTG, the binding signal (log2 normalized intensity) is 5.44.

Take ATCTAAGATTCCCCCTACCCTCAATATCTG: the binding signal (log2 normalized intensity) stood at 4.35.

For AGATACTCACCAGTGGGCCCAGAGCACAAC, the binding signal (log2 normalized intensity) is -1.

In the case of CTGTGACCATCTCCTTTTGTGAGAGGTCAA, the binding signal (log2 normalized intensity) was determined as 2.88.

Turning to TACAGGTGAATTTCAGTGCCCTTTGAGATT, the binding signal (log2 normalized intensity) came out at 3.3.

Turning to TTGCCATTGTACAGGTTCCCTCATGATTTA, the binding signal (log2 normalized intensity) is 0.435.

In the case of ATACGATAATGTCAAACATCTTATATCAAC, the binding signal (log2 normalized intensity) turned out to be 0.675.

Consider TTGCCTTGTTTGTTTTGAGGGTTAAAGGAG, for which the binding signal (log2 normalized intensity) was 2.02.

For TGCCCTGGATCTTGAAGCAGAAAACCACTG, the binding signal (log2 normalized intensity) was -1.15.

Regarding AAGCATACAGATTACATCTCCAGCTTATCT, the binding signal (log2 normalized intensity) is -1.07.

For CATTCTGCTGCTCTTTAATCCTAATAATCC, the binding signal (log2 normalized intensity) is -0.264.

On to AATCCAGACACTTTGGCTCCAGAGTCCACA, for which the binding signal (log2 normalized intensity) came out at 2.2.

With CTTGAAAGTAAGCAGACACTGAAAGATGGT, the binding signal (log2 normalized intensity) was -0.188.

As to GTTGCAAATTATTACTCCCACCGTGTGTGC, the binding signal (log2 normalized intensity) came out at 1.03.

Take GAAGAATGGAATTGCCATTGACTGAGATAG: the binding signal (log2 normalized intensity) is -0.94.

As to CTCGCTCGCCCGAGCGCTGCTTCTCGTCCC, the binding signal (log2 normalized intensity) was -1.11.

Take GGGACCAAGGGTCAGTTCATTAAAAAAAAA: the binding signal (log2 normalized intensity) is 1.57.

With ACATACAACCATCAAAGGTCACTTTACAGA, the binding signal (log2 normalized intensity) turned out to be 2.46.

GCTTGAGGCCAGCTCATAGGGATCAGATAA: the binding signal (log2 normalized intensity) is -1.16.

Consider TCCAAATGATAATGCCAAGGACTGAAAGAA, for which the binding signal (log2 normalized intensity) is -1.02.

Turning to CCTGGGCTGGAAAGGCCACCACAAACCCTT, the binding signal (log2 normalized intensity) was -1.13.

CCATTTTGCAATTGACAAATGGCTTGTGCT: the binding signal (log2 normalized intensity) is -1.26.

On to AAAATAGGGTAGTTTGGAGATGCCGTTAAG, for which the binding signal (log2 normalized intensity) was -0.322.

Consider GGACTTTACACAGACCTTTACCCACGGTCA, for which the binding signal (log2 normalized intensity) was 2.26.

CCTCCCAGAGCATTGTTTATTGTTGCTGAT: the binding signal (log2 normalized intensity) turned out to be 1.82.

With CGCGTCGAACTAGCTTGGTGCAGGGGCGGG, the binding signal (log2 normalized intensity) is -1.07.
